Source: the supplement of paper PMC3334620
In all, about 33,000 sequences were measured (“E-score (-0.5 to 0.5)”: median about -0.041, highest 2% from about 0.37 on). Some of the results follow.

What follows are sequences tested against T1, Ecm22 (UniProt Q05958) (assay: PBM E-score (8-mer binding enrichment) (E-score (-0.5 to 0.5)); higher = stronger / more preferred TF binding; most listed sequences are background and not binding sites). Settings: protein concentration: 200 nM; construct: GST-full length.
T1 sequence: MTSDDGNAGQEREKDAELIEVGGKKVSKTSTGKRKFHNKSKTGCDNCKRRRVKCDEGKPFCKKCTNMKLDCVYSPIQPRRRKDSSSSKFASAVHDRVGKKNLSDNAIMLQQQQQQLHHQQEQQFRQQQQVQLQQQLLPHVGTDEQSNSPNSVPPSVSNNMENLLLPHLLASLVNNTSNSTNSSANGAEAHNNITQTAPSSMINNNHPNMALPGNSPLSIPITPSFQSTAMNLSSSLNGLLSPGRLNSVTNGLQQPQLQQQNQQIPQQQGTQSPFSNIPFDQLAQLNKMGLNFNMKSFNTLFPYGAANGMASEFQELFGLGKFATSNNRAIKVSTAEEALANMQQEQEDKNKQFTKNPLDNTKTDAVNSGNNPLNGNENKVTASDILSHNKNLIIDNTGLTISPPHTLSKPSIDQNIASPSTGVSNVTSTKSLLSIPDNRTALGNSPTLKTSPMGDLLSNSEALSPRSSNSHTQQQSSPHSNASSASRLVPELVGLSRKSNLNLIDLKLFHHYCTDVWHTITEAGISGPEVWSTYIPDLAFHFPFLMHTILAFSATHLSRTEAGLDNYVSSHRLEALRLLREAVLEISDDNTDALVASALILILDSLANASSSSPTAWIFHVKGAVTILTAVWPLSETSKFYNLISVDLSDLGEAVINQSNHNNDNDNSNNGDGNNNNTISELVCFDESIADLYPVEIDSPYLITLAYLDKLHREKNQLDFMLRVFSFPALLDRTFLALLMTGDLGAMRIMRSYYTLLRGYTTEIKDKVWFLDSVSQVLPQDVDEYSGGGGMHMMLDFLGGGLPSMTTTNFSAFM
Summary of the method: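 Masliner-normalised scans of fluorescent anti-GST signal were the basis for scoring. That signal came from GST-tagged yeast transcription factors applied at about 100-200 nM to double-stranded universal all-10-mer Agilent arrays on fresh or once-stripped slides. Each ungapped eight-base word, pooled with its reverse complement, received an E-score from the Universal PBM Analysis Suite.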

Sequence	PBM E-score
ACGTCACT	-0.036
AGCATAGA	-0.164
ATGCCCGA	0.105
GATTTGGC	-0.0947
CTCACTTC	-0.0483
ATCGCAAT	0.105
CCTCTCGC	0.115
TAATATTA	0.233
CCACATAA	-0.061
CGGCGCAA	-0.0354
AACAGTGT	-0.0766
CGCGACAA	0.164
AGCCACAT	-0.028
CCCATTTA	0.00331
CGACGATC	0.232
CACAAGCC	-0.152
CTCAACAA	0.0458
ATTCGAGG	0.111
GATCCTAA	0.172
ATCTTTGG	-0.293
CCAGAGGG	-0.229
ATATTACA	0.146
AATATAAA	0.115
GACATCCC	-0.0525
AGTCTAGC	-0.172

Sequence	PBM E-score
GGCAGAAC	-0.117
CGGTTGGC	0.223
CTTGGTAA	0.0763
GAATCGTC	0.14
CGTAGCCA	0.254
ACGCACGC	0.159
CAGTGCAG	0.0521
CTAGGTGA	-0.148
GCGCTTGA	-0.00426
AAACCTGA	-0.0551
ACTGAAGG	-0.143
TTGGACAA	-0.0897
CGTACCAG	0.397
AGCCGTCA	-0.0186
ATGTACAT	0.0426
AGCCACGG	-0.305
AACCATGG	-0.0403
AGATCGTA	0.389
ATGGTAAT	-0.00988
ATGGGTTA	-0.0614
GGCCCGAA	0.13
AGAGAGAT	-0.163
CCGCTTCA	-0.0146
CAGACTTC	-0.22
GCAGACAA	-0.0357

Sequence	PBM E-score
AGGAGGTA	-0.043
AGCACGCC	0.0961
AGACCCAC	-0.14
GGTCCAAA	-0.244
ATTTTAGA	-0.111
ACTGCGGA	0.15
ACCGCGCT	-0.0866
ATCTGCAA	-0.202
ACTCAGCT	-0.0865
CCGACTGC	0.132
ACTCTCGC	0.161
AGATATGG	0.054
AAAGCCAA	-0.222
CCCTGAAA	-0.0815
CCTGTAAA	-0.0785
GATCGGGC	0.00226
CGCGAAGA	0.183
CCACGAGC	-0.0179
ACTTTTAA	-0.0966
AGTTTCCC	-0.0723
ATGGCGTC	0.0853
CCATGTCG	0.121
AGCTTCCG	-0.00995
AAACGTGC	0.0668
CGAATTAA	0.316

Sequence	PBM E-score
ACAAGCCC	-0.0755
CCGGACCA	0.0404
AAGTATAT	0.0727
ACTTGCGA	0.148
ATCAGTAG	-0.141
ATCCGACC	0.145
ACAGTTGA	-0.122
CATGGACC	-0.192
ACCCCATC	-0.155
AATTACTG	-0.0409
ACTGCGCA	0.0888
AGGTAAAG	0.0636
CCCATAAC	0.0605
AGTTTATA	0.15
CCCAGGGA	-0.351
CGAAATCC	0.0928
TGGAGTAA	-0.00482
CGCTAACA	0.0557
ATATTTTA	0.0478
TCTTGCAA	-0.0169
ACATATGC	0.111
CGAGTATA	0.237
AGACCGAC	0.203
GCCACCGA	-0.0865
AGCACTGA	-0.164

Sequence	PBM E-score
ACGTTATC	0.0182
ATCCTGAC	-0.0215
AACAGCCT	-0.271
AGGAGGAT	-0.157
AACCCACT	-0.0263
GGGGGTGA	-0.256
CACCGGGC	-0.27
AAGCCTAC	-0.202
ATCAATTC	-0.0714
GTTAAAAA	0.0597
CCCGCTTC	-0.0903
CCAGCGAG	0.0176
GCTTGTCC	0.0168
ACCAGCCT	-0.0699
CTTGGAAA	0.104
GTTGCGCA	-0.0414
ATTCCGTC	-0.256
AAGACCTT	-0.0798
GTGTCCGA	0.242
TGTCCAAA	-0.0421
GGCAGCCC	-0.121
CCATGTCA	-0.236
GAAGGCAC	-0.00275
GGGGACAC	-0.224
CTTAGTGC	-0.115

Sequence	PBM E-score
CCTTGGAC	-0.0458
AGCAAGCG	0.131
AGGATCGA	0.168
AGCCGGAG	-0.00796
ACAGGCAT	-0.151
CCTGAACC	-0.125
GTATACAC	0.236
CGAAACGC	0.0992
AGTAGCGG	-0.0229
GAATGCCA	-0.199
ACTGTCGA	-0.0436
GACGTCGA	0.152
ACAGACAG	-0.0953
ACCAGTGG	-0.174
GGCCTAAA	-0.202
ATCCTTTC	-0.175
ACAGTGGT	0.0263
CCGATCTA	-0.0276
GGCGGGGA	0.191
GCAACGCC	-0.0777
ATATTAAG	0.0746
CACTGGTC	0.0645
AACGGCCA	0.135
AAAACTTT	-0.122
AAATGACC	-0.11

Sequence	PBM E-score
ACACGCGT	0.0936
GCGTCAAA	0.0662
CGGTTACC	0.304
AGTTGCTC	-0.13
GCGTAGGA	-0.0388
AGCCATCC	-0.238
CTGAACAC	0.0936
AGCTGGGA	-0.167
CACAGCCA	-0.0456
AGGCCGTC	0.0471
GAGTACCC	0.042
CGCCCAGC	-0.00552
CACGACCA	0.0103
CTACCTGC	-0.202
ATCCGAGA	0.279
AGGTATAG	-0.0117
ACCTGTAG	-0.136
CATCCCGG	-0.164
ATGTGCCG	-0.0771
GTGGCAGA	-0.176
ATAAGAGG	0.102
ACAAGAAG	-0.0478
CGAAATTA	0.0197
CCGCTTAC	0.0978
GAACATGA	-0.162

Sequence	PBM E-score
TACAAACA	0.108
AACCCTGA	-0.203
TTGCCAAA	0.082
CCCTCGCC	-0.0526
CATGCCTA	-0.134
GCAAGGGC	-0.266
ATCGATTG	0.0987
AACGCCAG	0.0327
CACGCGCG	-0.0266
CTTATGCC	-0.0616
CCGGCACC	-0.0607
CTATCGCA	0.0959
GCCTTGTA	-0.209
CGTAGGTA	0.0163
CCCAATCA	-0.24
ATGTGACA	-0.0479
CGCCAAAG	-0.297
ATAGATTG	0.0287
GAGCCACA	-0.0887
ACGACTGC	0.308
AAACTCAC	-0.039
CTGTGCTA	-0.132
AGAACTAG	-0.224
TCGCGCGA	0.151
TAACGTTA	0.0399

Sequence	PBM E-score
ATTGATCC	-0.0658
AGATCCAA	-0.0669
CGAATACC	0.143
CAAGTGCG	-0.0245
AGATCTCC	-0.121
AGGCCGGG	-0.0729
ATACCGGA	-0.0331
CGCAGAAG	0.00639
GGGTCGAA	-0.0301
ATATCATG	-0.0308
CCTTCTAA	-0.195
CGAATACA	0.187
CCTAGGGC	-0.246
ATGTGCAG	-0.234
CATGAATG	-0.0686
ATTATTAC	0.129
GCTGGCTA	-0.107
CCAGCGGG	-0.235
AAAACACG	0.0336
